# In PMC12136788:
# Some of the results follow.
# B1: chr10:62806226:62806343:+|3pUTR|ENSG00000181915|unk|total|mutant (ssRNA)
# RNA: GGGAGUUCUACAGUCCGACGAUCCUACCCCUCCGUUAAACCGGGUUUAUUUUCCACUCAUGCCCUUAUGCCUUUUUUUCUUACCGUUUUUUAACUUAUUGACUGUGCAUGACCCAGUGGUUUGAAUUGUUUUCCGUUCAAGUCCAACAGAGGAUUGAGCAUCA
# B2: ENSG00000124766:be:win_1251|CDS|ENSG00000124766|bound_else_gene|NA|bound_elsewhere_windowed (ssRNA)
# RNA: GGGAGUUCUACAGUCCGACGAUCGUCCCUGGGCAGCUUCAGUUCGUCGUCGGCGCUCGACCGGGACCUGGAUUUUAACUUCGAGCCCGGCUCCGGCUCGCACUUCGAGUUCCCGGACUACUGCACGCCCGAGGUGAGCGAGAUCAACAGAGGAUUGAGCAUCA
# B3: chr8:96261867:96261970:+|5pUTR|ENSG00000156471|unk|FALSE|bound_elsewhere (ssRNA)
# RNA: GGGAGUUCUACAGUCCGACGAUCUCCUUCCCUCUGCUCCCAGCCUUUGCUGGGCGCCAGACCCGGCUUUGCCGUCCGGCUAUUAGCCUACUGUGGCUAGUCACCCCCGGGGUCCCGGCCUUCUCGGGCUGGGGCCGCCGCCACCAACAGAGGAUUGAGCAUCA
# B4: chrX:21994482:21994713:+|3pUTR|ENSG00000102172|msi1|FALSE|unique (ssRNA)
# RNA: GGGAGUUCUACAGUCCGACGAUCCAGCUGAAGGAUGGUUAGACAGCACAGCGAAGACUGCUAAAUGCACUGACCCCCCCCAUUAGAAUGUGAUUUUUGUUCCUUUUUAUUUCUCUGUGGGCUUUUGUUUUUGUUUUUGUUUUGCAACAGAGGAUUGAGCAUCA
# B5: chr12:88196262:88196297:+|3pUTR|ENSG00000139324|msi1_unk|FALSE|overlapping (ssRNA)
# RNA: GGGAGUUCUACAGUCCGACGAUCUGUAUACUUGUUUUUAACUUUAAAUGUAAUUUUUAAUCAGGUAAAGUUUGACACAUGUAUAGCUACAUACACACAUUUUUAAUGGUGCUCAUAUAUACUGUAUUUUUUGUUGUUUAGUUUCAACAGAGGAUUGAGCAUCA
# B6: chr2:159432892:159433005:-|CDS|ENSG00000123636|unk|FALSE|unique (ssRNA)
# RNA: GGGAGUUCUACAGUCCGACGAUCACACCUGUAAUGCCCUCUGCCUCUCCCAUCCUGCAUAGUCAAGGGAAGGAAAAAGCAGUUAGCAAUAAUGUAAACCCAGUAAAAACACAGCAUCACUCCCAUCCUGCAAAAUCUUUAGUGCAACAGAGGAUUGAGCAUCA
# B7: ENSG00000107863:be:win_5451|CDS|ENSG00000107863|bound_else_gene|NA|bound_elsewhere_windowed (ssRNA)
# RNA: GGGAGUUCUACAGUCCGACGAUCUUUUUGGAAAGUGCAUGAGCAGAGCGGGGAGAGAGAAUCUGAACUUUCAGCUGUAAACCGGUUAAAACCAAAAUGCUCAGCCCAGGACCUUUCCAUCUCAGACUGGCUGGCCAGGGAACGCAACAGAGGAUUGAGCAUCA
# B8: chr2:85649053:85649154:+|3pUTR|ENSG00000168883|unk|FALSE|unique (ssRNA)
# RNA: GGGAGUUCUACAGUCCGACGAUCUUCAGCAGGGCAGAACCCUUCUCCAGAUGUGUGUAACUUAUGUCUUGAGUAUCUGGGAGUAGUUGAAGAACAGAUAAUUCCUUCCAAACAUCAAGCCUUGGGAUUCUUGGAGCAAGCAGACAACAGAGGAUUGAGCAUCA
# B9: chr12:49323620:49323721:+|CDS|ENSG00000135451|unk|total|mutant (ssRNA)
# RNA: GGGAGUUCUACAGUCCGACGAUCAUCAUGACCACCCGGCAAGCCACGAAGGAUCCCCUCCUCCGGGGUGUAUCUCCUACCCCCCGCAAGAUUCCGGUACGCUCUCAGAAACGCACGCCUUUCCCCACUGUUACAUCGUGCGCCCAACAGAGGAUUGAGCAUCA
# B10: chr20:23564731:23564947:-|three_prime_utr|ENSG00000101435|control|control|control (ssRNA)
# RNA: GGGAGUUCUACAGUCCGACGAUCAGCUUUGGACUUGUUUGUUAUCCUAUUUUGCAUGUGUUUGAGAUCUCAGAUCAGUGUUUUAGAAAAUCCACACAUCUUGAGCCUAAUCAUGUAGUGUAGAUCAUUAAACAUCAGCAUUUUCAACAGAGGAUUGAGCAUCA
# B11: chr7:123692404:123692516:-|CDS|ENSG00000106299|unk|total|mutant (ssRNA)
# RNA: GGGAGUUCUACAGUCCGACGAUCCCUGCCUUCUGAUGGGGACCAUCAGGUUCCAACUACUGCAGGAAACAAAGCAGCUCUUUCCGAUCAAAUCCGAGAGGGUGCUCAGCUAAAAAAAGUGGAGCAGAACAGUCGGCCAGUGUCCAACAGAGGAUUGAGCAUCA
# B12: chr8:17299120:17299221:-|3pUTR|ENSG00000003987|unk|FALSE|unique (ssRNA)
# RNA: GGGAGUUCUACAGUCCGACGAUCUCCUCAUUAUUUAAAAAUGCUAAACCUUGUAUCUCACUUUUUCUCUAACACUGAUUUAAUAGCUAACGAGGUAGAAGCAACAUUCAUUCUCCUGGUCUUACAUAUGAAUUUAAGUAUCAGCAACAGAGGAUUGAGCAUCA
# B13: chr11:61866713:61866887:+|3pUTR|ENSG00000134824|msi1|total|mutant (ssRNA)
# RNA: GGGAGUUCUACAGUCCGACGAUCCUCUCCUGUCUGAACCUGCCCUUACUGUGUUUAACCUGUUGCUCCAGGAUGCAUUCUGACCGGAGGGGGCGGCAGGGCUGGGCCUUGUGACAAUCUGCCUUUCACCACAUGGCCUUGCCUCAACAGAGGAUUGAGCAUCA
# B14: chr8:94832020:94832135:+|CDS|ENSG00000164941|unk|FALSE|unique (ssRNA)
# RNA: GGGAGUUCUACAGUCCGACGAUCGGUACUAGAAGCAGCCCUAAAAUUAAACAAGGAUCUUUAUGUCCAUACGAUGAGAACUCUAGAUUUAUUGGCCAUGGAACCAGGCAUGGUAAAUGGAGAAACUGAGAGUUCUACUGCUGGCAACAGAGGAUUGAGCAUCA
# B15: chr1:179108573:179108674:-|CDS|ENSG00000143322|unk|FALSE|bound_elsewhere (ssRNA)
# RNA: GGGAGUUCUACAGUCCGACGAUCAGCCAAGUUAUUGCCCAGAGGAGCCACAGCUCUUCCUCUCAGAACACCCUCUGGGGAUCUAGCCAUUACAGAGAAGGACCCUCCAGGGGUGGGAGUGGCUGGAGUGGCAGCUGCCCCCAACAACAGAGGAUUGAGCAUCA
# B16: ENSG00000070961:be:win_301|CDS|ENSG00000070961|bound_else_gene|NA|bound_elsewhere_windowed (ssRNA)
# RNA: GGGAGUUCUACAGUCCGACGAUCUUAGUAUGGGAAGCAUUACAAGAUGUCACUUUAAUUAUAUUAGAAAUUGCAGCCAUAGUAUCAUUGGGCCUUUCUUUUUAUCAGCCUCCAGAAGGGGAUAAUGCACUUUGUGGAGAAGUUCAACAGAGGAUUGAGCAUCA
# B17: chr2:25738620:25738721:-|3pUTR|ENSG00000143970|unk|total|mutant (ssRNA)
# RNA: GGGAGUUCUACAGUCCGACGAUCAUACAUAUUAAUGACCUGACAGUUAACAUUCUGUUGUUUAUUAUUGCCUUUCUCCACCUCCGAGAGCCAUAAAUAACUCUCUGGUGAAGUGAUUUGCUAUAAUGGGGGUGAGGAGUGGGGCAACAGAGGAUUGAGCAUCA
# B18: chr10:73916565:73916770:+|3pUTR|ENSG00000122861|msi1|FALSE|unique (ssRNA)
# RNA: GGGAGUUCUACAGUCCGACGAUCCUGGUUGUCAUUUUUGCAGUAGAGUCAUCUCCAUCAGCUGUAAGAAGAGACUGGGAAGAUAGGCUCUGCACAGAUGGAUUUGCCUGUGCCACCCACCAGGGCGAACGACAAUAGCUUUACCAACAGAGGAUUGAGCAUCA
# B19: ENSG00000198589:be:win_4451|CDS|ENSG00000198589|bound_else_gene|NA|bound_elsewhere_windowed (ssRNA)
# RNA: GGGAGUUCUACAGUCCGACGAUCCUGCAGCGAAGAGCCCAGUGGACAUUGUGACUGGCGGUAUAUCUCCAGUAAGAGAUCUUGACAGGCUUCUACAGGACAUGGAUAUUAAUCGGCUUAGGGCAGUUGUUUUCAGAGACAUAGCAACAGAGGAUUGAGCAUCA
# B20: chr1:173887777:173887878:+|3pUTR|ENSG00000185278|unk|FALSE|unique (ssRNA)
# RNA: GGGAGUUCUACAGUCCGACGAUCAAAGAGAUUUGGCAGAGGGACAGGUUGUACCUGCACUGGUGAACCAUCUGUGAGAAUGUUAGUCAUGUGCUCCUUUCCUGAGAUUGCUUUGUGGUAUGUGAAAAGGUGGGUAGAAAAGAACAACAGAGGAUUGAGCAUCA
# B21: ENSG00000136451:be:win_2451|3pUTR|ENSG00000136451|bound_else_gene|NA|bound_elsewhere_windowed (ssRNA)
# RNA: GGGAGUUCUACAGUCCGACGAUCUUUAAAUUGGAAGACGCUGGAGGCACUGGGAUGUGAUAUGCCCCUCUCUCUCCCAAUCAGAGCCUGUUGAUAUUACAACAGGGACAGAUGUGUUAGUUGCUCACUAGAGUUUAUGUCUUACAACAGAGGAUUGAGCAUCA
# B22: chr5:173956200:173956301:+|3pUTR|ENSG00000113742|unk|total|mutant (ssRNA)
# RNA: GGGAGUUCUACAGUCCGACGAUCCCCCUUCCUCAACCUCUUCACGCUGGCAUGUCCUUUUGCCGCAGUCUGUAACUUAACUACCGUAUAAUGAAAAGAAUGACCUAUAAUACCGGUGUUUUGCCGAUUCUUGUGUCACUGCAACAACAGAGGAUUGAGCAUCA
# Target: MSI1 full-length (mouse, UniProt Q61474 1-362)
# Test: nsRBNS (natural sequence RNA bind-n-seq); RBNS binding buffer (assumed for nsRBNS): 25 mM Tris pH 7.5, 150 mM KCl, 3 mM MgCl2, 0.01% Triton X-100, 500 ug/ml BSA, 20 U/ml SUPERase-In, 4 C; UNK is unkempt and MSI1 is Musashi-1; names of the RNAs are library labels; protein concentration not given here; high values mean tight binding
# Chain of UniProt Q61474 (Q61474 whole entry): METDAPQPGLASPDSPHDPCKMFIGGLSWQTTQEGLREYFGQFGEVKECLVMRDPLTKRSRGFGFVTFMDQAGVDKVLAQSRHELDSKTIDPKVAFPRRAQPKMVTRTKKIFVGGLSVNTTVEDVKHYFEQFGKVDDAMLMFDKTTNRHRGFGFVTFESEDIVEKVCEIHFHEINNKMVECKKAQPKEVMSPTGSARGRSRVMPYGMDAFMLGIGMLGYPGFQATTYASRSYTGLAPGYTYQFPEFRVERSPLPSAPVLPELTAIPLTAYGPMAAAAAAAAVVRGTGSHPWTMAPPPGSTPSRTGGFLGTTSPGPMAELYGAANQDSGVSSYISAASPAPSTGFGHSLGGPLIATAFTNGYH
row,Binder,binding signal [enrichment R]
1,B1,1.31
2,B2,0.385
3,B3,0.359
4,B4,0.69
5,B5,8.28
6,B6,2.72
7,B7,0.474
8,B8,0.412
9,B9,0.676
10,B10,0.779
11,B11,0.31
12,B12,1.35
13,B13,0.533
14,B14,0.632
15,B15,0.509
16,B16,9.77
17,B17,0.501
18,B18,0.545
19,B19,0.53
20,B20,0.807
21,B21,1.47
22,B22,0.862
